# Source: paper PMC9911399, “Two distinct binding modes provide the RNA-binding protein RbFox with extraordinary sequence specificity”
# Substitutions are numbered along the chain they refer to; changes in the protein carry UniProt numbers. Some of the results follow.
# T1: RBFOX1 RRM (Homo sapiens, UniProt Q9NWB1 109-208)
# T1 sequence: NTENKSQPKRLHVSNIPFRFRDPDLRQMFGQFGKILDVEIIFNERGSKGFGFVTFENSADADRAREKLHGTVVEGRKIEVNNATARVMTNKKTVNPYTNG
# B1: AUCUUGC (DNA:RNA)
# RNA: GGGAGACCGGAAUUCAGAUUGUCCAUCUUGCUUAAAUCCCGUCGUAGCCACCA
# DNA 1: CAATCTGAATTCCGGTCTCCC
# DNA 2: TGGTGGCTACGACGGGATT
# B2: CUGAUAC (DNA:RNA)
# RNA: B1 RNA with A25C, C27G, U28A, G30A
# DNA 1: CAATCTGAATTCCGGTCTCCC
# DNA 2: TGGTGGCTACGACGGGATT
# B3: UGGGAGU (DNA:RNA)
# RNA: B1 RNA with A25U, U26G, C27G, U28G, U29A, C31U
# DNA 1: CAATCTGAATTCCGGTCTCCC
# DNA 2: TGGTGGCTACGACGGGATT
# B4: UUGUUAG (DNA:RNA)
# RNA: B1 RNA with A25U, C27G, G30A, C31G
# DNA 1: CAATCTGAATTCCGGTCTCCC
# DNA 2: TGGTGGCTACGACGGGATT
# B5: CCGACAG (DNA:RNA)
# RNA: GGGAGACCGGAAUUCAGAUUGUCCCCGACAGUUAAAUCCCGUCGUAGCCACCA
# DNA 1: CAATCTGAATTCCGGTCTCCC
# DNA 2: TGGTGGCTACGACGGGATT
# B6: GACGUGA (DNA:RNA)
# RNA: B1 RNA with A25G, U26A, U28G, C31A
# DNA 1: CAATCTGAATTCCGGTCTCCC
# DNA 2: TGGTGGCTACGACGGGATT
# B7: CACGUGG (DNA:RNA)
# RNA: B1 RNA with A25C, U26A, U28G, C31G
# DNA 1: CAATCTGAATTCCGGTCTCCC
# DNA 2: TGGTGGCTACGACGGGATT
# B8: GGACCAA (DNA:RNA)
# RNA: B5 RNA with C25G, C26G, G27A, A28C, G31A
# DNA 1: CAATCTGAATTCCGGTCTCCC
# DNA 2: TGGTGGCTACGACGGGATT
# B9: GUACGGG (DNA:RNA)
# RNA: B1 RNA with A25G, C27A, U28C, U29G, C31G
# DNA 1: CAATCTGAATTCCGGTCTCCC
# DNA 2: TGGTGGCTACGACGGGATT
# B10: UGCAGGC (DNA:RNA)
# RNA: B1 RNA with A25U, U26G, U28A, U29G
# DNA 1: CAATCTGAATTCCGGTCTCCC
# DNA 2: TGGTGGCTACGACGGGATT
# B11: GGUUGAA (DNA:RNA)
# RNA: B1 RNA with A25G, U26G, C27U, U29G, G30A, C31A
# DNA 1: CAATCTGAATTCCGGTCTCCC
# DNA 2: TGGTGGCTACGACGGGATT
# B12: CAUGAGA (DNA:RNA)
# RNA: B1 RNA with A25C, U26A, C27U, U28G, U29A, C31A
# DNA 1: CAATCTGAATTCCGGTCTCCC
# DNA 2: TGGTGGCTACGACGGGATT
# B13: GGCCAUG (DNA:RNA)
# RNA: B1 RNA with A25G, U26G, U28C, U29A, G30U, C31G
# DNA 1: CAATCTGAATTCCGGTCTCCC
# DNA 2: TGGTGGCTACGACGGGATT
# B14: CAUAAGG (DNA:RNA)
# RNA: B5 RNA with C26A, G27U, C29A, A30G
# DNA 1: CAATCTGAATTCCGGTCTCCC
# DNA 2: TGGTGGCTACGACGGGATT
# B15: GCCCAUC (DNA:RNA)
# RNA: B1 RNA with A25G, U26C, U28C, U29A, G30U
# DNA 1: CAATCTGAATTCCGGTCTCCC
# DNA 2: TGGTGGCTACGACGGGATT
# B16: CUUAGAG (DNA:RNA)
# RNA: B5 RNA with C26U, G27U, C29G
# DNA 1: CAATCTGAATTCCGGTCTCCC
# DNA 2: TGGTGGCTACGACGGGATT
# B17: CUACGGA (DNA:RNA)
# RNA: B1 RNA with A25C, C27A, U28C, U29G, C31A
# DNA 1: CAATCTGAATTCCGGTCTCCC
# DNA 2: TGGTGGCTACGACGGGATT
# B18: CUUCGUA (DNA:RNA)
# RNA: B1 RNA with A25C, C27U, U28C, U29G, G30U, C31A
# DNA 1: CAATCTGAATTCCGGTCTCCC
# DNA 2: TGGTGGCTACGACGGGATT
# B19: ACGGUCG (DNA:RNA)
# RNA: B5 RNA with C25A, A28G, C29U, A30C
# DNA 1: CAATCTGAATTCCGGTCTCCC
# DNA 2: TGGTGGCTACGACGGGATT
# B20: UGCUCCC (DNA:RNA)
# RNA: B1 RNA with A25U, U26G, U29C, G30C
# DNA 1: CAATCTGAATTCCGGTCTCCC
# DNA 2: TGGTGGCTACGACGGGATT
# B21: UCCAGCG (DNA:RNA)
# RNA: B5 RNA with C25U, G27C, C29G, A30C
# DNA 1: CAATCTGAATTCCGGTCTCCC
# DNA 2: TGGTGGCTACGACGGGATT
# B22: GUCCCGA (DNA:RNA)
# RNA: B1 RNA with A25G, U28C, U29C, C31A
# DNA 1: CAATCTGAATTCCGGTCTCCC
# DNA 2: TGGTGGCTACGACGGGATT
# B23: UGGUAUC (DNA:RNA)
# RNA: B1 RNA with A25U, U26G, C27G, U29A, G30U
# DNA 1: CAATCTGAATTCCGGTCTCCC
# DNA 2: TGGTGGCTACGACGGGATT
# B24: UACGGCC (DNA:RNA)
# RNA: B1 RNA with A25U, U26A, U28G, U29G, G30C
# DNA 1: CAATCTGAATTCCGGTCTCCC
# DNA 2: TGGTGGCTACGACGGGATT
# B25: CGAGUAA (DNA:RNA)
# RNA: B5 RNA with C26G, G27A, A28G, C29U, G31A
# DNA 1: CAATCTGAATTCCGGTCTCCC
# DNA 2: TGGTGGCTACGACGGGATT
# B26: CCCUUUA (DNA:RNA)
# RNA: B1 RNA with A25C, U26C, G30U, C31A
# DNA 1: CAATCTGAATTCCGGTCTCCC
# DNA 2: TGGTGGCTACGACGGGATT
# B27: GUAUAUC (DNA:RNA)
# RNA: B1 RNA with A25G, C27A, U29A, G30U
# DNA 1: CAATCTGAATTCCGGTCTCCC
# DNA 2: TGGTGGCTACGACGGGATT
# B28: AUGCCUU (DNA:RNA)
# RNA: B1 RNA with C27G, U28C, U29C, G30U, C31U
# DNA 1: CAATCTGAATTCCGGTCTCCC
# DNA 2: TGGTGGCTACGACGGGATT
# B29: CCGUUGU (DNA:RNA)
# RNA: B1 RNA with A25C, U26C, C27G, C31U
# DNA 1: CAATCTGAATTCCGGTCTCCC
# DNA 2: TGGTGGCTACGACGGGATT
# B30: CAGUUGU (DNA:RNA)
# RNA: B1 RNA with A25C, U26A, C27G, C31U
# DNA 1: CAATCTGAATTCCGGTCTCCC
# DNA 2: TGGTGGCTACGACGGGATT
# B31: AUCUACU (DNA:RNA)
# RNA: B1 RNA with U29A, G30C, C31U
# DNA 1: CAATCTGAATTCCGGTCTCCC
# DNA 2: TGGTGGCTACGACGGGATT
# Biological target: T1, RBFOX1 RRM
# Test: EMSA; HiTS-Eq, 1 nM pool, 10 min; buffer printed only for the single-RNA assays: 10 mM Tris pH 7.5, 150 mM NaCl, 3.4 mM EDTA, 0.001% NP-40, 30 C
# Details: tags: His6 N-terminal (pET28a); label: 5' 32P
# How it was run: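 Relative association constants, normalised to the cognate motif, were derived by comparing read counts of each RNA species with those of the control reaction. The RNA sequenced was the free fraction, separated by 8% native PAGE after a 10 min equilibration in 50 µL of 1 nM 5′-radiolabelled RNA (7 randomized nucleotides) with increasing concentrations of purified wild-type or mutant RbFox RRM.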
row,Binder,binding signal
1,B1,0.0138 KA relative to UGCAUGU
2,B2,0.00951 KA relative to UGCAUGU
3,B3,0.0357 KA relative to UGCAUGU
4,B4,0.0257 KA relative to UGCAUGU
5,B5,0.0084 KA relative to UGCAUGU
6,B6,0.0121 KA relative to UGCAUGU
7,B7,0.00501 KA relative to UGCAUGU
8,B8,0.00354 KA relative to UGCAUGU
9,B9,0.00942 KA relative to UGCAUGU
10,B10,0.0192 KA relative to UGCAUGU
11,B11,0.0102 KA relative to UGCAUGU
12,B12,0.0117 KA relative to UGCAUGU
13,B13,0.013 KA relative to UGCAUGU
14,B14,0.0076 KA relative to UGCAUGU
15,B15,0.00823 KA relative to UGCAUGU
16,B16,0.0116 KA relative to UGCAUGU

row,Binder,binding signal
1,B17,0.00611 KA relative to UGCAUGU
2,B18,0.00744 KA relative to UGCAUGU
3,B19,0.0129 KA relative to UGCAUGU
4,B20,0.00242 KA relative to UGCAUGU
5,B21,0.00606 KA relative to UGCAUGU
6,B22,0.00559 KA relative to UGCAUGU
7,B23,0.0158 KA relative to UGCAUGU
8,B24,0.012 KA relative to UGCAUGU
9,B25,0.00659 KA relative to UGCAUGU
10,B26,0.00199 KA relative to UGCAUGU
11,B27,0.00955 KA relative to UGCAUGU
12,B28,0.00845 KA relative to UGCAUGU
13,B29,0.0105 KA relative to UGCAUGU
14,B30,0.0137 KA relative to UGCAUGU
15,B31,0.00271 KA relative to UGCAUGU
